Data reported in doi:10.1101/2024.03.20.585962 (2024).

B1: BRD3-L (domain or fragment)
chain: VEAPALPAPAAPMVSKGAESSRSSEESSSDSGSSDSEEERATRLAELQEQLKAVHEQLAALSQAPVNKPKKKKEKKEKEKKKKDKEKEKEKHKVKAEEEKKAKVAPPAKQAQQKKAPAKKANSTTTAGRQLKKG[about 80 residues omitted]QRKPFSASGKKQAAKSKEELAQEKKKELEKRLQDVSGQLSSSKKPARKEKPGSAPSGGPSRLSSSSSSESGSSSSSGSSSDSSDSE
modifications: biotin (biotinylated protein; site not stated)
B2: HiBiT-tagged BRD3([…]) (domain or fragment)
chain: AAPMVSKGAESSRSSEESSSDSGSSDSEEERATRLAELQEQLKAVHEQLAALSQAPVNKPKKKKEKKEKEKKKKDKEKEKEKHKVKAEEEKKAKVAPPAKQAQQKKAPAKKANSTTTAGRQLKKG[about 80 residues omitted]QRKPFSASGKKQAAKSKEELAQEKKKELEKRLQDVSGQLSSSKKPARKEKPGSAPSGGPSRLSSSSSSESGSSSSSGSSSDSSDSE

How the values were obtained:
BRD3_p2 = BRD3_p2 (N-terminal D-Tyr; thioether cyclisation of the N-terminal chloroacetyl group with a cysteine; azide group at the C-terminus; N-methylalanine where Figure 3D prints X); assay: SPR
BRD3_p10 = assay: SPR
BRD3_p9 = BRD3_p9 (N-terminal D-Tyr; thioether cyclisation of the N-terminal chloroacetyl group with a cysteine; azide group at the C-terminus; N-methylalanine where Figure 3D prints X); assay: SPR
BRD3_p1 = BRD3_p1 (N-terminal D-Tyr; thioether cyclisation of the N-terminal chloroacetyl group with a cysteine; azide group at the C-terminus; N-methylalanine where Figure 3D prints X); assay: SPR
BRD3_p7 = BRD3_p7 (N-terminal D-Tyr; thioether cyclisation of the N-terminal chloroacetyl group with a cysteine; azide group at the C-terminus; N-methylalanine where Figure 3D prints X); assay: SPR
BRD3_p3.1 = assay: SPR
BRD3_p6 = BRD3_p6 (N-terminal D-Tyr; thioether cyclisation of the N-terminal chloroacetyl group with a cysteine; azide group at the C-terminus; N-methylalanine where Figure 3D prints X); assay: SPR
BRD3_p8 = BRD3_p8 (N-terminal D-Tyr; thioether cyclisation of the N-terminal chloroacetyl group with a cysteine; azide group at the C-terminus; N-methylalanine where Figure 3D prints X); assay: SPR
BRD3_p5 = assay: SPR
BRD3_p4 = BRD3_p4 (N-terminal D-Tyr; thioether cyclisation of the N-terminal chloroacetyl group with a cysteine; azide group at the C-terminus; N-methylalanine where Figure 3D prints X); assay: SPR
BRD3_p3.2 = assay: SPR
BRD3_p5_TAMRA = BRD3_p5_TAMRA (N-terminal D-Tyr; thioether cyclisation of the N-terminal chloroacetyl group with a cysteine; TAMRA fluorophore (on the C-terminal azide group); N-methylalanine where Figure 3D prints X)

| Binder | Kd (BRD3_p2) | Kd (BRD3_p10) | Kd (BRD3_p9) | Kd (BRD3_p1) | Kd (BRD3_p7) | Kd (BRD3_p3.1) | Kd (BRD3_p6) | Kd (BRD3_p8) | Kd (BRD3_p5) | Kd (BRD3_p4) | Kd (BRD3_p3.2) | Kd (BRD3_p5_TAMRA) |
| --- | --- | --- | --- | --- | --- | --- | --- | --- | --- | --- | --- | --- |
| B1 | > 1000 nM | 250 nM | 38 nM | 3.3 nM | 17 nM | 680 nM | 4.2 nM | > 1000 nM | 13 nM | 5.9 nM | 51 nM |  |
| B2 |  |  |  |  |  |  |  |  |  |  |  | 12 nM |
